Measured values as given in paper PMC4336329 (PLoS ONE, 2015).
About 2,200 (0.71%) of roughly 310,000 compounds showed an effect of 50% or more. Effects have a minus sign here. The list shows a part of the results.

These compounds were tested against human ether-à-go-go-related gene (hERG) potassium channel (human, UniProt Q12809) (assay: primary screen, population patch clamp on CHO cells stably expressing hERG).
Sequence of human ether-à-go-go-related gene (hERG) potassium channel (Q12809 whole entry, looked up): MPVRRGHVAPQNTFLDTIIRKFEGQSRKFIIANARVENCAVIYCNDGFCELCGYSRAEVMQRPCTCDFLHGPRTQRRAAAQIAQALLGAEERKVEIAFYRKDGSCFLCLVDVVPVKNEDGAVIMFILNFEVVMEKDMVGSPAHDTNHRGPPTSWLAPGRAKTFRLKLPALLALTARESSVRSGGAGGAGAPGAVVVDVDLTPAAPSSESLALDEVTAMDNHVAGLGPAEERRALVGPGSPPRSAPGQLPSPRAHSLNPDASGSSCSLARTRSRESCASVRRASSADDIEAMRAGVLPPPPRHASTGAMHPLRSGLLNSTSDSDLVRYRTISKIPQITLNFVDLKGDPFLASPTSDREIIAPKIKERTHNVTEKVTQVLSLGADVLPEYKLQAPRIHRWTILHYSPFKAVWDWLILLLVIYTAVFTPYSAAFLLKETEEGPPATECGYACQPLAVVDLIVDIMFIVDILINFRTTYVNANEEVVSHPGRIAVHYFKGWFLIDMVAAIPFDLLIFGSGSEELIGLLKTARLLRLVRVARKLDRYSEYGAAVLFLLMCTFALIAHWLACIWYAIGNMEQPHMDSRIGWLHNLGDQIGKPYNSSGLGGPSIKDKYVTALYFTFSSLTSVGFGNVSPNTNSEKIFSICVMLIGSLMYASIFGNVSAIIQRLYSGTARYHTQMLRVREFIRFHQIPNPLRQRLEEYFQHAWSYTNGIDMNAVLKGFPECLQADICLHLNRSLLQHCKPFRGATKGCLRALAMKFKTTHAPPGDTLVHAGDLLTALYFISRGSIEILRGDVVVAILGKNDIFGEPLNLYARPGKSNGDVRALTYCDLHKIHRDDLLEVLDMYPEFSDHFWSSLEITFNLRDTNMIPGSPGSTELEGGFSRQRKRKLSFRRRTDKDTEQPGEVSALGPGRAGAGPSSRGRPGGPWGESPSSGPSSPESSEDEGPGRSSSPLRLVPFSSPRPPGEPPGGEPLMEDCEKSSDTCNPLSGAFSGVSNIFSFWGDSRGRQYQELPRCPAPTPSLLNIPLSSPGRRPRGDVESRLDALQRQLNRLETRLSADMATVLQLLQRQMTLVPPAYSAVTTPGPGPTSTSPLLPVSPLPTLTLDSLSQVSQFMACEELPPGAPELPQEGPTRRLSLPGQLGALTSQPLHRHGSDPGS

Structure (SMILES)	hERG current change (%, negative = inhibition) at 1uM [%]
O=C(O)Cc1ccc(NC(=O)c2cnccn2)cc1	17.2
CN1CCCCC1=NCCCn1cnc2c1c(=O)n(C)c(=O)n2C.Cl	7.73
COC(=O)C1(C(=O)OC)NOC2C(=O)N(N(C)c3ncc(C(F)(F)F)cc3Cl)C(=O)C21 (stereo not drawn)	14.5
CC(=O)Cc1nsc(Nc2ccccc2)n1	11.4
COc1cc(C2c3c(-c4ccccc4)n[nH]c3C(=O)N2c2ccc(C(=O)O)cc2)ccc1O (stereo not drawn)	12.3
CC1=C(C(=O)OC(C)C)C(c2ccccc2)NC(=S)N1C (stereo not drawn)	10.7
O=C(NC1CCN(S(=O)(=O)c2ccc(F)cc2)CC1)c1ccc(F)cc1	10.2
COc1ccc(-c2n[nH]c(=S)n2/N=C/c2cccn2C)cc1	11.1
COC(=O)Cn1cnc2sc(C)c(S(=O)(=O)N3CCN(c4ccccc4OC)CC3)c2c1=O	1.61
CCn1c(SCC(=O)Nc2ccc3c(c2)OCO3)nnc1C(C)C	0.97
CN(C)CCNC(=S)Nc1ccc(Cl)cc1Cl.Cl	1.63
O=C(CNC(=O)C(c1ccccc1)c1ccccc1)N/N=C\c1ccc2c(c1)OCO2	13.7
COc1ccc(OCCCN2CCCCCC2)cc1.O=C(O)C(=O)O	-4.95
O=C(NC1CCCC1)c1ccc2c(c1)N(Cc1ccccc1)CCS2	-1.52
COc1ccc(NC(=O)Nc2ccccc2OC)cc1	15.6
CCN1CCN(c2c(C(=O)c3ccc(OC)cc3)cnc3ccccc23)CC1	-67.9
Cc1cc(C)cc(C(=O)NC(CC(N)=O)c2ccc(N3CCN(C)CC3)c([N+](=O)[O-])c2)c1 (stereo not drawn)	12.7
c1ccc(-c2ncc3ccccn23)cc1	8.85
COc1ccc(Nc2ccccc2C(=O)O)cc1	12.8
COc1ccc2c(C)c(CCC(=O)NC3CC3)c(=O)oc2c1	11.2
CCN1CC2=C(OC(N)=C(C#N)C2c2ccccc2)/C(=C\c2ccccc2)C1 (stereo not drawn)	11.1
Cc1ccc(S(=O)(=O)N(C)C)cc1NC(=O)COC(=O)c1c(C)noc1C	7.34
Cl.N=c1c2c(n(Cc3ccc(F)cc3)c3c1CCC3)CCCC2	1.67

Structure (SMILES)	hERG current change (%, negative = inhibition) at 1uM [%]
COc1ccc(N2CCN(CCCNC(=S)Nc3c(C)cccc3C)CC2)cc1	-6.51
Cc1ccc(Cl)cc1-n1c(=O)cc(N2CCN(C(=O)c3ccco3)CC2)[nH]c1=O	12
COc1cc(-c2nnc(SCc3ccccc3Cl)o2)cc(OC)c1OC	7.78
Cc1cccc(C)c1NC(=O)Cn1nnnc1N	8.75
CC(C)N1CC=C2C(C#N)=C(N)C(C#N)(C#N)C(c3ccccc3)C2C1 (stereo not drawn)	-0.618
COc1ccc(C)cc1NC(=O)CSc1nnc(COc2ccc(Cl)cc2)n1Cc1ccco1	7.71
Cc1ccc(NC(=O)c2ccccc2OCc2c(C)noc2C)cc1S(=O)(=O)N(C)C	6.52
N#Cc1sc2nc(-c3cccs3)cc(-c3ccccc3)c2c1N	10.1
CN(CCc1nnc(N)s1)[N+](=O)[O-]	2.96
NC(=O)CC(NC(=O)c1ccc(Br)cc1)c1ccc(N2CCCCCCC2)c([N+](=O)[O-])c1 (stereo not drawn)	7.7
COc1ccc(-c2cc(C)no2)cc1S(=O)(=O)NCCCN(C)Cc1ccccc1	-0.572
C(=C\c1nc(N2CCCCCC2)c2ccccc2n1)/c1ccccc1	7.65
Cn1c(-c2ccccc2)cc2ccccc21	10
Cc1cc(/C=C\c2nc(O)c([N+](=O)[O-])c(=O)[nH]2)c(C)n1-c1ccccc1	4.4
O=C(c1ccsc1)N1CCCC(N2CCN(c3cccc(Cl)c3)CC2)C1 (stereo not drawn)	0.466
O=c1c2c3c(sc2nc2n1CCCCC2)CCCCC3	2.1
CCCNC(=O)CCc1c(C)nc2c(c(C)nn2-c2ccc(C)cc2)c1C	9.58
COc1ccc(/C=C/c2nc(N)nc(-c3ccccc3O)n2)cc1	6.02
COc1ccc(NC(=O)CCOc2ccccc2)cc1	10.3
Cc1cccc(OCC(=O)Nc2ccc(N3CCN(C(=O)c4ccccc4)CC3)cc2)c1C	12.8
Cc1ccc(C)c(-n2c(SCC(N)=O)nnc2-c2ccccn2)c1	7.69
O=C1NC(=S)S/C1=C\c1coc2ccccc2c1=O	15
